Measurements taken from article PMC4336329 (PLoS ONE, 2015).
Screen size: about 310,000 compounds; about 14,000 (4.5%) showed an effect of 50% or more. Effects have a minus sign here. This is one part of the list.

Target: human ether-à-go-go-related gene (hERG) potassium channel (human, UniProt Q12809)
Test: primary screen, population patch clamp on CHO cells stably expressing hERG
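Note: peak tail current of the secondary pulse compared with the same well before compound.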

human ether-à-go-go-related gene (hERG) potassium channel, sequence (Q12809 whole entry, looked up): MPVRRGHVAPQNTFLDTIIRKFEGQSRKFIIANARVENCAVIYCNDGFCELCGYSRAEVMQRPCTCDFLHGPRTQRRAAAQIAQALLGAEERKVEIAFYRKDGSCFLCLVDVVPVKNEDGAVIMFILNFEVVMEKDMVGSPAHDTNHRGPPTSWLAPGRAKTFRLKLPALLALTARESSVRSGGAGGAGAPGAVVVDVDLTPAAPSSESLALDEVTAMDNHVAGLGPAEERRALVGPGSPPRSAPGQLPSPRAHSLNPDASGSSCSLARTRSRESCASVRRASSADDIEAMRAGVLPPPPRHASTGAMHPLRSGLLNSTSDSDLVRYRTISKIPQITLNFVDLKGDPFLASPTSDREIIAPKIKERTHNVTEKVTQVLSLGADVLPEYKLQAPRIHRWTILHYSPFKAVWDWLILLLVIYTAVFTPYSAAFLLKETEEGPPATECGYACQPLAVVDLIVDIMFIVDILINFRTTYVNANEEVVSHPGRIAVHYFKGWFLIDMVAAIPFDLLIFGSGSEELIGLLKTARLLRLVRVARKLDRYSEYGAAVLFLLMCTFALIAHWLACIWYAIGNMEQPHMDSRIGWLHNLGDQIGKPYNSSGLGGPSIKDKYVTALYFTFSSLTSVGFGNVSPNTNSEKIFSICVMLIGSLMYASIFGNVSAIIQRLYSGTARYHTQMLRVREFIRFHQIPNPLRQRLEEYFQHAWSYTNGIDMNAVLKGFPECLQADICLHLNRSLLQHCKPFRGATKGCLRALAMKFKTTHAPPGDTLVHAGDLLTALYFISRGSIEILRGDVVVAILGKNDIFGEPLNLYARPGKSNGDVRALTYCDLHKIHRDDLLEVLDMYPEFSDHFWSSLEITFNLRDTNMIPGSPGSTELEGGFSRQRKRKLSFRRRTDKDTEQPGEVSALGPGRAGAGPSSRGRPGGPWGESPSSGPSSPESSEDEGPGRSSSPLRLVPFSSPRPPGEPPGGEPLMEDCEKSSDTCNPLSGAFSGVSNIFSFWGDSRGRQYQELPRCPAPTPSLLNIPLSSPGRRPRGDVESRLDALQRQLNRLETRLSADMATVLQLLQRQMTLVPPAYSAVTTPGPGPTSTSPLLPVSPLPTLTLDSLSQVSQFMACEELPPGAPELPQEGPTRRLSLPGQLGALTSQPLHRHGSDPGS

| Compound | hERG current change (%, negative = inhibition) at 10uM [%] |
| --- | --- |
| CC1CCC(NC(=O)COC(=O)CCC(=O)c2ccc(Cl)s2)CC1 (stereo not drawn) | 17.9 |
| CCn1c(=O)c(=O)[nH]c2cc(C(=O)NC3CCCC3)ccc21 | 19 |
| O=S(=O)(Nc1ccc2oc(-c3ccccc3)nc2c1)c1ccccc1 | -12.3 |
| COc1ccc(-c2c(C)nn3c(N4CCC(C(=O)N5CCCCC5)CC4)cc(C)nc23)cc1OC | -8.83 |
| CC1(C)CC(N2CCCC2)=CC(=[N+]2CCCCCC2)C1.[I-] | -8.68 |
| O=C(Nc1c(F)cc(F)cc1Br)c1cc(-c2ccco2)on1 | -1.65 |
| O=C(NCCCN1CCOCC1)c1ccccc1.O=C(O)C(=O)O | 21.1 |
| O=C(CNc1cccc(S(=O)(=O)N2CCOCC2)c1)Nc1cccc(Br)c1 | -21.6 |
| NC(=O)[C@@H]1CCCN1Cc1c(C(=O)N2CCN(C3CCCCC3)CC2)nc2ccccn12 | 1.39 |
| COc1ccc(NC(=O)CN2C(=O)NC(c3ccccc3)(c3ccccc3)C2=O)cc1OC | -22.2 |
| COc1ccc(Cl)cc1NC(=S)N1CCCC1 | 15.5 |
| Cc1nnc(NC(=O)c2ccc(C)c(S(=O)(=O)N3CCOCC3)c2)s1 | 9.4 |
| CN(C)C=O.O=C(NCCc1ccccc1)c1oc2ccccc2c1COc1ccccc1 | 12.4 |
| CCOC(=O)c1ccccc1Oc1c(F)c(F)nc(NCCO)c1F | 10.2 |
| O=C1NC[C@H](CC2CCCCC2)N(CCc2cccc(F)c2)C1=O | -10.7 |
| Cc1cc(C)c2c(CN3CCN(C/C=C/c4ccccc4)CC3)cc(=O)oc2c1 | -76.9 |
| Cn1c(=O)[nH]c2cc3ccccc3cc21 | 2.36 |
| CC(=NCCN1CCN(C(=S)Nc2ccccc2)CC1)C1=C(O)CC(C)(C)CC1=O | -15.3 |
| O=C(CSc1nnnn1-c1ccc(F)cc1)Nc1ccc(N2CCOCC2)c(Cl)c1 | -18.1 |
| Cc1cc(S(=O)(=O)Nc2ccc(C(=O)NCC(c3ccco3)N3CCCCC3)cc2)ccc1F (stereo not drawn) | -41.2 |
| O=C(Nc1nc2c(Cl)cccc2s1)c1ccc([N+](=O)[O-])o1 | 26.8 |
| Oc1ccc(Cl)cc1C(C#Cc1ccccc1)N1CCOCC1 (stereo not drawn) | -0.922 |
| COCCNC(=S)Nc1ccc2nsnc2c1 | -11.2 |

| Compound | hERG current change (%, negative = inhibition) at 10uM [%] |
| --- | --- |
| COc1ccc(CN(C)C(=O)c2[nH]c(C)c(C(C)=O)c2C)c(OC)c1OC | -1.66 |
| COc1ccc(C(=O)CSc2nnc(CNc3nc(-c4ccccc4)cs3)n2C)cc1 | -11.8 |
| CCOC(=O)c1c(C)n(CCOc2ccccc2)c2ccc(O)cc12 | 17.9 |
| O=C(NCCN1CCOCC1)c1ccc(Cl)nc1 | 6.3 |
| CCCCNC(=O)c1ccc2c(SCC(=O)O)c3c(nc2c1)CCCC3 | 7.59 |
| Cc1ccccc1OCC(=O)NNC(=O)C1CC(=O)N(c2ccc3c(c2)OCCO3)C1 (stereo not drawn) | -9.06 |
| COc1ccc(-c2cn3cccnc3n2)cc1NC(=O)C1CCCC1 | -6.23 |
| O=C(NCC1CCCO1)c1cccc(N2C(=O)C3C4C=CC(C4)C3C2=O)c1 (stereo not drawn) | 5.84 |
| COc1ccc(Nc2ncccc2C(=O)NCc2ccccc2)cc1 | 0.461 |
| CC(=O)C(=Nc1ccc(Cl)cc1Cl)NNc1cccc(Cl)c1 | 13.5 |
| COC(=O)[C@H](Cc1ccccc1)NC(=O)NCc1ccc(S(N)(=O)=O)cc1 | 19.1 |
| Cn1ncc2c(NNC(=O)c3ccc(Cl)cc3Cl)ncnc21 | 10.2 |
| COc1cc(CNn2cnnc2)ccc1OCC(=O)NC1CCCCC1 | -1.35 |
| COc1cc(CN2CCN(c3cccc(C)c3C)CC2)cc(OC)c1O | -45.4 |
| CC(CCc1ccccc1)NC(=O)CSc1ccccn1 (stereo not drawn) | -18.5 |
| O=C(CC1(CC(=O)N2CCOCC2)CCCC1)Nc1ccccc1 | -1.63 |
| Cc1nc2c(C)cccn2c1/C(O)=C1\C(=O)C(=O)N(CCN(C)C)C1c1ccncc1 (stereo not drawn) | 4.49 |
| CN(CC(=O)Nc1c(Cl)cccc1Cl)C(=O)Cn1[nH]c(=O)c2ccccc2c1=O | 0.265 |
| Cc1ccc(CNC(=O)C2CC=CCC2C(=O)O)cc1 (stereo not drawn) | 16.3 |
| COc1ccc(NC(=O)CSc2cn[nH]n2)c(OC)c1 | 10.8 |
| Cc1nnc(NC(=O)c2ccccc2NC(=O)c2ccccc2)s1 | 8.36 |
| Cc1ccc(-c2nc(SC(C)C(=O)N3CCOCC3)n[nH]2)cc1 (stereo not drawn) | 4.04 |
| Cc1ccc(CS(=O)(=O)CCC(=O)NCc2ccc3c(c2)OCO3)cc1 | -7.75 |

| Compound | hERG current change (%, negative = inhibition) at 10uM [%] |
| --- | --- |
| CCOc1ccccc1OCCCNCc1ccccc1.O=C(O)C(=O)O | -6.53 |
| CCN(C(=O)CSc1nnc(-c2c[nH]c3ccccc23)o1)C1CCS(=O)(=O)C1 (stereo not drawn) | 7.81 |
| O=C1C=C(N2CCN(C(=O)c3ccccc3)CC2)C2(CCCCC2)O1 | -10.3 |
| CCc1c(O)nc(SCC(=O)Nc2ccccc2C)[nH]c1=O | 6.84 |
| O=C(Nc1ccccc1C(=O)O)c1ccc(NC(=O)c2ccc(Br)o2)cc1 | 11.7 |
| Cc1ccc(NC(=O)[C@H](C)NC(=O)C2CCN(C(=O)[C@@H](N)C(C)C)CC2)cc1 | 5.23 |
| COc1ccc(NC2CCCN(C(=O)c3cn(C)c4ccccc34)C2)cc1 (stereo not drawn) | 3.47 |
| CC1=NN(S(=O)(=O)c2ccc(Cl)cc2Cl)C(=O)c2ccccc2O1 | -24.3 |
| O=C1CC2(CCN(C(=O)COc3ccccc3)CC2)Oc2ccccc21 | -67.4 |
| O=C1CN(c2nc3nonc3nc2N2CCCCC2)CCN1 | 10.5 |
| CCNC(=S)NNC(=O)c1cc(C2CC2)nc2ccccc12 | -17.8 |
| C#CCNC(=O)C1=C[C@@H](c2cn(C(C)=O)c3ccccc23)C[C@@H](OCCCCO)O1 | -40.1 |
| O=C(Cc1ccccc1)NCCn1ccc2ccccc21 | 1.61 |
| Cc1ccc(C)c(NC(=O)C2CCCN(c3cnccn3)C2)c1 (stereo not drawn) | -13.3 |
| CSc1ccccc1-n1nnnc1SCC(=O)Nc1cc(C)ccc1C | -5.79 |
| O=C(O)CCCn1nc(C(F)(F)F)c2c1CCCCC2 | 8.82 |
| O=C(CSc1nc2ccccc2c(=O)n1-c1ccc(F)cc1)Nc1ccc(Cl)c(S(=O)(=O)N2CCOCC2)c1 | -21.9 |
| CCCCCc1ccc(-c2ccc(OCC)cc2)nc1 | 0.649 |
| CC(=O)Nc1ccc(NCC(O)COc2ccccc2)cc1.Cl (stereo not drawn) | -3.82 |
| COc1cc(CNCCc2c[nH]c3ccccc23)ccc1OCc1ccccc1F.Cl | -52 |
| S=C1N(c2ccccc2)C(c2ccc(Br)cc2)N2CCCN12 (stereo not drawn) | 10.2 |
| COC(=O)[C@H](CCSC)NC(=O)NCCC1=CCCCC1 | -4.33 |
| Cn1nc(C(=O)Nc2nc3ccccc3[nH]2)ccc1=O | -35.8 |

| Compound | hERG current change (%, negative = inhibition) at 10uM [%] |
| --- | --- |
| CCOC(=O)c1ccc(S(=O)(=O)Nc2ccc3cn[nH]c3c2)cc1 | 2.39 |
| COC(=O)c1nc2ccccn2c1F | 13.2 |
| Cl.O=C(CN(CCO)c1ccccc1)NC12CC3CC(CC(C3)C1)C2 | 5.29 |
| C/C(=C\c1ccccc1)CN1CCN(c2ccccc2F)CC1 | 5.01 |
| COc1cc(/C=C2\SC(=S)N(CCC(=O)Nc3ccc(O)cc3)C2=O)cc(OC)c1OC | 11.9 |
| Cc1cccc(/C=N/NC(=O)c2cc3c(s2)-c2ccccc2CC3)c1 | 9.72 |
| CCCCc1nc(C(N)=O)c2[nH]c(=O)n(-c3ccc(OC)cc3OC)c2n1 | 1.88 |
| Cc1ccc(Cn2nc(C)c(NC(=O)C3(C)CC3(Br)Br)c2C)cc1 (stereo not drawn) | -1.81 |
| Cc1cc(CC(=O)O)c2oc(-c3ccoc3)cc(=O)c2c1 | 17.2 |
| O=C(/C=C/Nc1ccc(Oc2ccccc2)cc1)c1ccco1 | 9 |
| CCCCP(=O)(O)CCC(=O)O | 12.7 |
| Cc1cc(NC(=O)c2ccc(S(=O)(=O)N3CCOCC3)cc2)no1 | 17.5 |
| CCNc1nc(NCC)nc(SCCOC(=O)COc2ccc(Cl)cc2Cl)n1 | 6.49 |
| Cc1ccc(S(=O)(=O)N2c3ccccc3-c3c(ssc3=S)C2(C)C)cc1 | -2.34 |
| CCCCc1ncc(CN2CCC(n3nccc3NC(=O)C(OC)c3ccccc3)CC2)[nH]1 (stereo not drawn) | 9.16 |
| Cn1ccnc1SCC(=O)NC1CC1 | -13.9 |
| COc1cccc(-c2cc(C(=O)NN3CCOCC3)c3ccccc3n2)c1 | -24.3 |
| CC(=O)Nc1ccc(C(=O)N/C(=C/c2ccccc2)C(=O)N2CCCCC2)cc1 | 4.57 |
| CC(=O)Nc1ccc2nc(NC(=O)COc3ccccc3Cl)sc2c1 | 13.9 |
| CCCC(=O)Nc1ccc(C(=O)N/N=C2\CC(=O)CC(C)(C)C2)cc1 | -12.3 |
| COC(=O)c1ccc2c(=O)n(CCN3CCOCC3)c(=S)[nH]c2c1 | -12.1 |
